According to the supplement of paper PMC3334620:
The full ranking holds about 33,000 sequences; the median of “E-score (-0.5 to 0.5)” is about -0.04, and the highest 2% start at about 0.36. Some of the results follow.

Each sequence was assayed against T1, Hmlalpha2 (UniProt P0CY09) (assay: PBM E-score (8-mer binding enrichment) (E-score (-0.5 to 0.5)); higher = stronger / more preferred TF binding; most listed sequences are background and not binding sites). Settings: protein concentration: 200 nM; construct: GST-full length.
T1 sequence: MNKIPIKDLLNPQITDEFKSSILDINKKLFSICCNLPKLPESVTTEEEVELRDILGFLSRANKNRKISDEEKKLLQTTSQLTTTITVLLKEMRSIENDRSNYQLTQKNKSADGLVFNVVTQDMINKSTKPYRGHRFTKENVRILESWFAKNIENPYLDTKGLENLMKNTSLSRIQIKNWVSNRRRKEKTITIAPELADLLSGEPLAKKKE
Outline: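 E-scores (a modified Wilcoxon-Mann-Whitney statistic) were assigned by the Universal PBM Analysis Suite to every ungapped eight-base word pooled with its reverse complement. The input came from universal all-10-mer Agilent arrays made double-stranded by primer extension and probed with GST-tagged yeast transcription factors at about 100-200 nM. Fluorescent anti-GST detected bound protein, and masliner normalised the scans.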

Point of comparison: ACGTGGGA, “PBM E-score” value -0.143. Against it:
- AACTCGAT — higher, 0.133
- AAGACCAC — higher, -0.0544
- CTCATTGA — higher, -0.0946
- CAGTGTGC — lower, -0.145
- ATAAGATA — higher, 0.12
- CGACAGTC — lower, -0.2
- AGTATAAG — higher, 0.00671
- AGCAGCTG — higher, -0.0747
- CGAGAGTA — higher, 0.0592
- AAACCGTT — higher, 0.067
- GTAGGCGA — higher, -0.0868
- GTAGCCAA — higher, -0.121
- CGCTGGCC — lower, -0.324
- CCAGAGAG — lower, -0.382
- AATCACCG — higher, -0.00358
- CCGCTATA — higher, -0.0834
- TGCCGAAA — higher, 0.122
- AATAGGAA — higher, 0.0134
- AGGCTATC — higher, -0.0617
- GTACTCAA — higher, 0.0572
- AATTCGAT — higher, 0.0905
- AGAGGTTA — higher, 0.0615
- ACAACTCA — higher, 0.194
- CCAGACGG — lower, -0.274
- CGATGCCC — lower, -0.351
- CGGTGCGA — higher, -0.141
- AATTGGAA — higher, -0.0256
- ATTGGAGA — higher, -0.0969
- CCCCTGCC — lower, -0.248
- AACAGGGT — higher, -0.088
- GAATACGA — higher, 0.241
- TCACATGA — higher, 0.226
- CACGAGTA — higher, 0.239
- AACTACTG — higher, -0.0925
- GGGGACAA — higher, -0.0632
- AGTTGCGC — higher, -0.00931
- ATAGACAA — higher, 0.136
- ATGGATAG — lower, -0.242
- GGGGGTAA — lower, -0.193
- AAGTTAGT — higher, 0.155
- AAGTAACG — higher, 0.0658
- GGGGGGGA — lower, -0.471
- ACAGGGTA — higher, 0.0548
- GATGAGGA — lower, -0.236
- GGATTGAA — higher, -0.0571
- GTATGAAA — higher, 0.226
- TATAGACA — higher, 0.205
- ATTCGAGC — higher, -0.0797
- AGGCGTTC — higher, -0.0931
- CGCTGCCA — lower, -0.207
- CCACGATC — higher, 0.172
- GTCTTTGA — higher, 0.0224
- AGCAGACG — lower, -0.26
- ACGTTTAT — higher, 0.182
- CAACATCA — higher, 0.306
- TAGGTACA — higher, 0.161
- CCTGCGGA — higher, -0.117
- ACCCCGGC — higher, -0.126
- ACCCCCCC — lower, -0.385
- CTCAAGTA — higher, 0.127
- GATAACGC — higher, 0.199
- AGGCCAGC — lower, -0.178
- CAGATACA — higher, 0.304
- CGATAACG — higher, 0.0685
- CATGCATC — higher, 0.127
- ACCAAAAT — higher, 0.0777
- TACCCGTA — higher, -0.0142
- CTCCTACC — lower, -0.275
- ATATCGGA — higher, -0.0245
- CAGCCTGG — lower, -0.219
- GTACGGAA — higher, -0.0247
- AGACTGTG — higher, 0.0767
- AGTTGTTC — higher, 0.095
- CAAAAAGG — higher, -0.141
- ATATCCGC — higher, -0.118
- CTAATGTC — higher, 0.00838
- TACGGGGA — lower, -0.243
- ATCAGCCA — lower, -0.308
- AGGCCATC — lower, -0.215
- AGCAGTTC — higher, -0.11
- AAATGGAC — higher, 0.127
- TCAGGTAA — higher, 0.0489
- CGTTATAA — higher, 0.222
- TCACTCCA — lower, -0.183
- CAGCGCTC — lower, -0.155
- ATTAAAGC — higher, 0.0897
- CGCGTAAC — higher, 0.342
- CGGTCAGA — lower, -0.199
- CTTCGCGA — higher, -0.132
- TCTTATAA — higher, 0.121
- TCGGATAA — higher, 0.0696
- AAAAGGGT — higher, -0.103
- AGTCCCCA — lower, -0.288
- ATCGCCGA — lower, -0.162
- CATTCGCC — higher, -0.142
- AAAGATTT — higher, -0.0325
- CGTTATCC — higher, 0.0446
- CTCGGATC — lower, -0.213
- CAACTCTG — higher, -0.11
- AACAGACC — higher, 0.172
- CCTGACCG — lower, -0.26
- ACGCGGTA — higher, 0.146
- GTTCAGTA — higher, 0.174
- GCATATAC — higher, 0.0337
- CCGGTGCC — lower, -0.378
- AGGCTGTG — higher, -0.019
- ACCTAGCC — lower, -0.205
- ATGCCATC — higher, -0.0946
- AACCCGGA — lower, -0.174
- GGGCAAAA — higher, -0.0548
- GCAGGGAC — lower, -0.171
- GAACGCTA — lower, -0.221
- GCTAGAGC — higher, 0.0126
- ACGGGCAT — higher, -0.0838
- CCTTCCAA — lower, -0.188
- GTATAGCA — higher, 0.165
- TACACCTA — higher, 0.118
- CATAGGCG — higher, -0.0257
- CAGTCCGG — higher, -0.0752
- CACAACAC — higher, 0.306
- ATTGCTCC — lower, -0.332
- AAATCATT — higher, 0.0564
- CTACGGTC — lower, -0.184
- CACAGTAC — higher, 0.142
- CTCCATTC — lower, -0.305
- CTCGGGGC — lower, -0.159
- AGAATCCC — higher, -0.0598
- CCCTTTTC — lower, -0.175
- GATTCTGA — higher, -0.0885
- CAATACTG — higher, -0.12
- ATCTTTAC — higher, 0.307
- AACGTAAG — higher, 0.085
- CTTGCAGC — higher, -0.026
- GCGTACAC — higher, 0.247
- ATCGGATG — lower, -0.151
- GCAAGCTA — higher, 0.0155
- ATTAGATC — higher, 0.0379
- CACCTACA — higher, 0.109
- AACTGACT — higher, -0.0831
- CGGTCCGC — lower, -0.225
- ACCACAAG — higher, -0.12
- ACGATCCG — lower, -0.144
- ATTGCGTG — higher, 0.203
- GGTCGAGA — higher, -0.0719
- ATGTCGAG — higher, 0.224
- ACTACAAA — higher, 0.17
- TTAGCTAA — higher, 0.192
- AAGTAATA — higher, 0.24
- AGTTCAAT — higher, -0.0837
- CCAAGAAC — higher, -0.074
- GTCCACAA — higher, -0.00027
- GCACACAC — higher, 0.178
- ACCTAATG — higher, -0.0242
- CCGCCTAC — higher, 0.0229
- TAATCGTA — higher, 0.191
- CCCAAAAA — higher, -0.0325
- TCCTGAGA — higher, -0.0663
- AGAGGATC — lower, -0.204
- GTATGCCA — lower, -0.254
- CAATCTTA — higher, 0.159
- AACGCGGT — higher, 0.238
- CTTGTTTA — higher, 0.311
- ACTTTCCC — higher, -0.13
- ACCAGCGG — higher, -0.131
- CCGTGATC — lower, -0.333
- ACCTTGCA — lower, -0.157
- TCAACGAA — higher, 0.16
- AGCGAAAA — higher, -0.129
- ATGGCCAG — higher, -0.0836
- CCTCAAGA — higher, -0.00472
- AGGTAACT — higher, 0.0319
- ACCAACAA — higher, 0.198
- CCCTTTCC — lower, -0.227
- AAAGAGAA — higher, -0.11
- GAAATATC — lower, -0.159
- GCCCAAAC — higher, -0.104
- AGTATGTC — higher, 0.201
- AGCCGGCC — higher, -0.119
- ACCTACTC — higher, -0.0541
- CACGGTCA — higher, 0.121
- AAGTCAGA — lower, -0.153
- AAGCTTGA — lower, -0.185
- CGCCAGTC — lower, -0.225
- ATAAGCTA — higher, 0.0838
- CTTAACCC — higher, -0.0467
- ACTTGCAG — higher, -0.0185
- AAAGTCTT — lower, -0.193
- TTGAAAAA — higher, 0.115
- CCCCCAGA — lower, -0.415
- AGAGAAGA — higher, 0.0365
- ACGACGAA — higher, 0.138
- ACTCTACT — higher, 0.0373
- CACCCAAC — lower, -0.174
- ATTGCGTC — higher, -0.0657
- CGTAATTC — higher, 0.321
- AACTTATG — higher, 0.19
- CTAGCTTA — higher, 0.00657
- ATAGCGGA — lower, -0.149
- GGACAATA — higher, -0.0131
- AGCGGAAC — lower, -0.181
- CCTTGCCG — lower, -0.228
- AGAAAAAT — higher, 0.144
- ACTCGAGG — higher, -0.114
- GACAGCGC — higher, 0.0293
- GACGGAAC — higher, -0.117
- TTATCCAA — higher, 0.19
- AGGTCTGA — higher, -0.0612
- AGCAGTGG — lower, -0.329
- CTGCGACC — lower, -0.349
- AACGCCGA — higher, 0.165
- GTTAGTGA — higher, 0.152
- AGAATTGA — higher, -0.00062
- AAAGTCGG — higher, -0.0953
- ACGTGTGC — higher, 0.172
- AGAACAAG — higher, 0.172
- AATGATCC — higher, 0.0156
- AAGAGGCA — lower, -0.184
- GTTGTATA — higher, 0.38
